According to US11058725B2, “CA2 compositions and methods for tunable regulation” (Obsidian Therapeutics, Inc., priority 2019, dated 2021):

How the values were obtained:
Human primary T cells = experiment: In vitro antigen-independent expansion of T cells transduced with constitutive or ACZ-regulated mbIL15 constructs (cell numbers by flow cytometry); assay type: cell-based; settings: T cells expressing constitutive construct, no ACZ, in 10 days
Protocol: T cells were thawed, cells were washed and counted. T cells were mixed with CD3/CD28 beads (Invitrogen cat#11141D) at 3:1 bead to T cell ratio. 5×10^5 cells/well were added to 24-well plates in 500 μL media. Cells were activated for 24 hrs. Next day, lentivirus was thawed and added to each well at different volumes. After 24 hrs, 500 μL of fresh media was added to wells, and cells were expanded by adding equal volume of fresh media every 2-3 days to keep cell density at 0.5-1×10^6/mL. Cells were analyzed by flow cytometry to confirm expression on day 5 or 6. Cells were expanded for 9-10 days.
After T cell transduction and expansion, CD3/CD28 beads were removed using magnets, cells were washed twice, resuspended in fresh media and counted. Cells were plated in 12-well plates at 1×10^6 in 2 mL. One well of untransduced cells was cultured in the presence of 2 ng/mL IL15 as a control. T cells expressing regulated constructs were cultured in the absence or presence of acetazolamide (ACZ, 30, 10, 3, 1, 0.3 μM). Cell numbers were monitored by flow cytometry every 3-4 days and cells were cultured for 10-12 days. At each time point 100 μL of cells were collected from wells and analyzed by flow cytometry. Cells were split as needed. […] Volumes for each well were recorded before and after split to calculate final volume in cell number assessment. […]
T cell numbers were determined by flow cytometry. […]

T cells = experiment: IL15 expression on T cells in vivo on day 25 (IL15Ra-Fc staining, flow cytometry); design: species or system NSG mice; settings: day 25, constitutive constructs
Protocol: Human primary T cells capable of expressing constitutive mbIL15 or ACZ-regulated mbIL15 were prepared in accordance with methods described in Example 1 above. After T cell transduction and expansion, CD3/CD28 beads were removed using magnets, cells were washed twice, resuspended in fresh media and counted. T cells were mixed with expanded NK cells and each animal received 5×10^6 T cells and 2×10^6 expanded NK cells. Cells were infused by intravenous injections into NSG mice. Animals infused with T cells expressing regulated constructs were dosed daily with 200 mg/kg ACZ or vehicle by PO injections. Every 3-4 days, 50 μL blood was analyzed by flow cytometry for presence of T cells and NK cells using antibodies against mouse and human CD45, CD3 and CD56. IL15 expression on day 25 was analyzed using IL15Ra-Fc and fluorochrome conjugated anti-human IgG antibody.
IL15 expression on T cells in vivo on day 25 was analyzed by flow cytometry (FIG. 5C). T cells transduced with constitutive constructs IL15-292 and IL15-294 expressed high levels of IL15 (82% and 61%). IL15 expression was <1.5% in vehicle-treated IL15-293 and IL15-295 as well as EV groups. IL15 expression levels were 11% and 9% on T cells transduced with IL15-293 and IL15-295 in groups treated with ACZ.

B1: IL15-294: constitutive mbIL15 construct with altered B7-1 cytoplasmic tail (AA SEQ ID NO: 26) (protein)
chain: MDMRVPAQLLGLLLLWLSGARC[gap - about 120 residues]GSGSGSGSGSGSGSGSGSGSGSGSGSGSGSKQEHFPDNLLPSWAITLISVNGIFVICCLTYCFAPRCRERARNERLRRETVRPVGS
Human primary T cells
  T cell expansion: 21 fold
T cells
  IL15 expression on T cells: 61%
